Assay results reported in the RNAGym collection of RNA variant scans (doi:10.1093/nar/gkz1192).
Read counts are not given, so values of variants with three or more changes are uncertain.

B1: CPEB3 Ribozyme (parent)
chain: UAACAGGGGGCCACAGCAGAAGCGUUCACGUCGCAGCCCCUGUCAGAUUCUGGUGAAUCUGCGAAUUCUGCUGUAUAUCUC

Variants of: B1
Assay: self-cleavage, relative activity (ratio to wild type); higher = more cleavage; in vitro, sequencing
In short: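 Relative activity was defined as the cleaved/total read fraction for a variant divided by the same fraction for the unmutated ribozyme. CPEB3 self-cleaving ribozyme libraries were made by rounds of error-prone PCR, barcoded, and transcribed in vitro with T7 RNA polymerase for 5 hours at 37°C, and cleavage ran through transcription plus a 15 min DNase I step before EDTA. Illumina sequencing of template-switched reverse transcripts gave the reads, and DNA sequencing mapped the barcodes. Averages come from three batches, using variants with at least 5 reads.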

Row | Variant | self-cleavage
1 | UAACAGGGGGCCACAGCAGAAGCGCCCACGUCGCAGCCCCUGUCGGAUUCUGGUGACUCUGCGAAUUCUGCUCUAUAUCUC [U25C U26C A45G A57C G73C] | 0.12
2 | UAACAGGGGGCCACAGCAGAAGCGCCCACGUCGCAGCCCCUGACAGAUUCUGGUGAAUCUGCGAUUUCCGCUGUACAUCUC [U25C U26C U43A A65U U69C U76C] | 0.12
3 | UAACAGGGGGCCACAGCAGAAGCGCUCACGACGCAGCCCCUGUCAGAUUCUAGUGAAUCUGCGAAUUCCGCUGUAUAUCUC [U25C U31A G52A U69C] | 0.11
4 | UAACAGGGGGCCACAGCAGAAGCGCUCACGCCGCAGCCCCUGUCAGAUUCUGGUGAAUCAGCGAAUUCUGCUGUAUAUCUC [U25C U31C U60A] | 0.39
5 | UAACAGGGGGCCACAGCAGAAGCGCUCACGUCGCAGCCCCAGUCUGAUUCUGGUGAAUCUGCGGACUCAGCUGAAUAUCUC [U25C U41A A45U A64G U66C U69A U74A] | 0.04
6 | UAACAGGGGGCCACAGCAGAAGCGCUCACGCCGCAGCCCCUGUCAGAUUCUGGUGGAUCUGCGAAUUCUGCUGCUUAUCUC [U25C U31C A56G U74C A75U] | 0.15
7 | UAACAGGGGGCCACAGCAGAAGCGCCCACGUCGCAGCCCCUGUCAGAUUCUGGUGAAUCUGCGAAUUCUGCUGCAUAUCUC [U25C U26C U74C] | 0.42
8 | UAACAGGGGGCCACAGCAGAAGCGCUCACGACGCAGCCCCUGCCAGAUUCUGGUGAAUCUGCGUAUUCUGCUGUAUAUCUC [U25C U31A U43C A64U] | 0.11
9 | UAACAGGGGGCCACAGCAGAAGCGCUCACGACGCAGCCCCUGUCAGAUUCUGGUGAAUCUGCGUAUUCUGCUGUAUACCUC [U25C U31A A64U U78C] | 0.15
10 | UAACAGGGGGCCACAGCAGAAGCGCCCACGUCACAGCCCCUGUCAGAUUCUGGUGAAUCUGCGAAUUCUGCAGUAUAUCUC [U25C U26C G33A U72A] | 0.17
11 | UAACAGGGGGCCACAGCAGAAGCGCCCACGUCGCAGCCCCCGUCAGAUACUGGUGAAUCUGCGAAUCCUGCUGUAUAUCUC [U25C U26C U41C U49A U67C] | 0.13
12 | UAACAGGGGGCCACAGCAGAAGCGCCCACGUCGCAGCCCCAGUCGGAUUCUGGUGAAUCUGCGAAUUCUGCUGUAUAUCUC [U25C U26C U41A A45G] | 0.2
13 | UAACAGGGGGCCACAGCAGAAGCGCUCACGCCGCAGCCCCUGUCAGAUUCAGGUGAAUCUGCGAAUUCUGCUGUAUAUAUC [U25C U31C U51A C79A] | 0.13
14 | UAACAGGGGGCCACAGCAGAAGCGCUCACGACGCAGCCCCUGCCAGGUUCUGGGGAAUCUGCGAAUUCUGCUGUAUAUCUC [U25C U31A U43C A47G U54G] | 0.07
15 | UAACAGGGGGCCACAGCAGAAGCGCCCACGUCGCAGCCCCUGUCAGAUUCUGGUGAAUUUGCGAAUUCUGCUGUACAUCUC [U25C U26C C59U U76C] | 0.2
16 | UAACAGGGGGCCACAGCAGAAGCGCCCACGGCGCAGCCCCUGUCAGAUUCUGGUGAAUCUGCGAAUACUGCUGUAUAUCUC [U25C U26C U31G U67A] | 0.08
17 | UAACAGGGGGCCACAGCAGAAGCGCCCACGUCGCAGCCCUUGUCAGAUUCUGGUGAAUCUGCGAAUUCUGCAGUAUAUCUC [U25C U26C C40U U72A] | 0.21

Row | Variant | self-cleavage
18 | UAACAGGGGGCCACAGCAGAAGCGCGCACGUCGCAGCCCCUGUCAGAUUCAGGUGAAUCUGCGAAUUCUGCUGUAUAUCUC [U25C U26G U51A] | 0.36
19 | UAACAGGGGGCCACAGCAGAAGCGCCCACGUCGCAGCCCCCGUCAGAUUCUGGUGAAUCUGCGAAUUCUGCUGCAAAUCUC [U25C U26C U41C U74C U76A] | 0.05
20 | UAACAGGGGGCCACAGCAGAAGCGCUCACGCCGCAGCCCCCGUCAGAUUCUGGUGAAUCUGCGAAUUCUGCUGUAUAUCUC [U25C U31C U41C] | 0.19
21 | UAACAGGGGGCCACAGCAGAAGCGCUCACGCCACAGCCCCUGUCAGAUCCUGGUGAAUCUGCGAAUUCUGCUGUAUAUCUC [U25C U31C G33A U49C] | 0.06
22 | UAACAGGGGGCCACAGCAGAAGCGCUCACGACGCACCGCCUGUCAGAUUCUGGUGAAUCUGCGAAUUCUGCUGUAUAUCUC [U25C U31A G36C C38G] | 0.14
23 | UAACAGGGGGCCACAGCAGAAGCGCUCACGCCGCUGCCCCUGUCAGACACUGGUGAGUCUGCGAAUUCUGCUGUAUAACUC [U25C U31C A35U U48C U49A A57G U78A] | 0.08
24 | UAACAGGGGGCCACAGCAGAAGCGCCCACGUCGCAGCCCCUGACAGAUUCUGGUGAAUCUGCGUAUUCUGCUGUAUAUCUC [U25C U26C U43A A64U] | 0.36
25 | UAACAGGGGGCCACAGCAGAAGCGCUCACGACGCAGCCCCUGUCAGAUUCCGGUGAAUCAGCGAAUUCUGCAGUAUACCUC [U25C U31A U51C U60A U72A U78C] | 0.08
26 | UAACAGGGGGCCACAGCAGAAGCGCUCACGACGCAGCCCCUGUCAGAUUCUGGUGAAACUGCGAACUCUGCUGUAUAUCAC [U25C U31A U58A U66C U80A] | 0
27 | UAACAGGGGGCCACAGCAGAAGCGCUCACGACGCAGCCCCCGUCAGAUUCAGGUGAAUCCGCGAAUUCUGCUGUAUAUCUC [U25C U31A U41C U51A U60C] | 0.2
28 | UAACAGGGGGCCACAGCAGAAGCGCUCACGACGCAGCCCCUGUCAGAUUCUGGUGAGUCUGCGAGUUCUGCUGUAUAUCUC [U25C U31A A57G A65G] | 0.14
29 | UAACAGGGGGCCACAGCAGAAGCGCUCACGGCGCACCCCCUGUCAGAUUCUGGUGAAUCUGCGAUUUCUGCUGUAUAUCUC [U25C U31G G36C A65U] | 0.26
30 | UAACAGGGGGCCACAGCAGAAGCGCCUACGUCGCAGCCCCUGUCAGAUUCUGGUGAAUCUGCGAAUUCUGCUGUAUACCUC [U25C U26C C27U U78C] | 0.18
31 | UAACAGGGGGCCACAGCAGAAGCGCCCACGUCGCAGCCCCCGACAGAUUCUGGUGAAUCUGCGAAUUCUGCUGUAUAUCUC [U25C U26C U41C U43A] | 0.29
32 | UAACAGGGGGCCACAGCAGAAGCGCUCACGGCGCAGCCCCUGUCAGGUUCUGGUGAAUCCGCGAAUUCUGCUGUAUAUCUC [U25C U31G A47G U60C] | 0.12
33 | UAACAGGGGGCCACAGCAGAAGCGCGCACGUCGCAGCCCCUGUCAGAUUCUGGUGAAUCUGCGAAUUCAGCAGUAUAUCUC [U25C U26G U69A U72A] | 0.14
34 | UAACAGGGGGCCACAGCAGAAGCGCCCACGCCGCGGCCCCUGUCAGAUUCUGGUGAAUCUGCGAAUUCUGCUGUAUAUCUC [U25C U26C U31C A35G] | 0.11
